Measurements taken from the supplement of paper PMC3334620.
Over roughly 33,000 sequences, “E-score (-0.5 to 0.5)” has its median near -0.012; the highest 2% begin near 0.27. The list shows a part of the results.

biological target: T1, Vhr1 (UniProt P40522); experiment: PBM E-score (8-mer binding enrichment) (E-score (-0.5 to 0.5)); higher = stronger / more preferred TF binding; most listed sequences are background and not binding sites; settings: protein concentration: 200 nM; construct: GST-full length
T1 sequence: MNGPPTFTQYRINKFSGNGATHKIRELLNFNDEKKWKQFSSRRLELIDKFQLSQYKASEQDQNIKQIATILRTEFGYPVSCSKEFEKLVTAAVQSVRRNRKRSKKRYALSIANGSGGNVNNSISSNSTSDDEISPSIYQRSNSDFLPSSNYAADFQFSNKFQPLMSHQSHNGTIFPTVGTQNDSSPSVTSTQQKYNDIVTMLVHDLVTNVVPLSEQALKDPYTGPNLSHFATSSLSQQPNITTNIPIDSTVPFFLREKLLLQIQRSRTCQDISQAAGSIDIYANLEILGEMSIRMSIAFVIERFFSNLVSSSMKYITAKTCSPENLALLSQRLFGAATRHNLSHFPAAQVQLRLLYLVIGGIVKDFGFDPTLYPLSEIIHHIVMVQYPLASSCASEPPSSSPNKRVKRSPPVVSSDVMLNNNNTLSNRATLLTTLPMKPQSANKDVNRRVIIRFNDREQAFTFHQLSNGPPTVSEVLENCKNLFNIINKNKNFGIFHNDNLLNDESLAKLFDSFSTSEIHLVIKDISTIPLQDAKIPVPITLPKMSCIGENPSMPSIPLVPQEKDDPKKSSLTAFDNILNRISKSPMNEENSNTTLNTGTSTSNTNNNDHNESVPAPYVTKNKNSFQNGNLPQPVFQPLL
In short: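 Yeast transcription factors, full-length or as DNA-binding domains, were expressed with a GST tag using PURExpress in vitro transcription/translation. At about 100-200 nM they were applied to universal all-10-mer Agilent arrays, double-stranded by primer extension on fresh or once-stripped slides. Fluorescent anti-GST detected bound protein, and masliner normalised the scans. E-scores for ungapped eight-base words, pooled with reverse complements, came from the Universal PBM Analysis Suite.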

Row | Sequence | PBM E-score
1 | GGCTGCCC | -0.109
2 | ATCGTGGC | 0.0224
3 | TGCAAAAA | -0.207
4 | GGGGATTA | 0.0356
5 | ATTTCTCG | 0.119
6 | CCGGTTGA | 0.0709
7 | CGAGTATC | -0.0336
8 | GCGCCAGC | -0.00609
9 | ACAGGGGG | -0.0353
10 | AAATGGAT | -0.0084
11 | ATCCCGGA | 0.0474
12 | CAACCAGC | 0.0712
13 | AGGTGGAG | -0.191
14 | CGATGCGA | -0.0418
15 | GAAACAAA | -0.0509
16 | CTAGCTAG | -0.041
17 | ACTTTCGC | -0.222
18 | AACCAGGT | 0.00882
19 | AGGGCCGC | -0.279
20 | GAAGTTCA | -0.262
21 | AACCGCGC | 0.162
22 | AATAGCAT | -0.00071

Row | Sequence | PBM E-score
23 | AGCTCTGA | -0.119
24 | AGACGACC | 0.0506
25 | AAAGAAAG | -0.211
26 | AGCGACCT | -0.0531
27 | GCTAGTCC | -0.158
28 | AATTCTCA | -0.164
29 | GCCTTATA | -0.0741
30 | AATGATCT | 0.189
31 | CGGATGGA | -0.029
32 | ACAACTCG | 0.0362
33 | ATCGAACC | 0.0716
34 | ACAGTACC | -0.0791
35 | CCAAAAGC | -0.257
36 | CAGGCATC | 0.0171
37 | AGCATACC | 0.0407
38 | AGGATTAT | -0.164
39 | CACAGTCA | 0.244
40 | ACGTACCC | -0.00016
41 | CGTTTCAG | -0.0522
42 | AGCATGAG | 0.214
43 | CATTTACC | -0.0302
44 | CGTCAAAG | -0.137

Row | Sequence | PBM E-score
45 | CCTTATAA | -0.0239
46 | TCAGCGGA | 0.204
47 | GTGTGGGA | -0.0315
48 | CATTCATC | 0.00286
49 | CGAAAACG | -0.0998
50 | AATATGTG | 0.231
51 | TACAAAAA | -0.0714
52 | AACATTAG | -0.144
53 | CGGGCCGC | 0.066
54 | AGCAGGCG | -0.00605
55 | GACGTTGA | -0.00553
56 | GCACAGGC | -0.0644
57 | CAGACGGC | -0.0191
58 | ATAAGACG | -0.187
59 | ACCGCGCG | 0.336
60 | TATCCTGA | 0.0793
61 | ATTACCAG | 0.0341
62 | ACATCTCA | -0.136
63 | TTCTAGAA | -0.133
64 | ACAACTGG | -0.0138
65 | ACGGGTCC | -0.127
66 | CGTCACAC | -0.021

Row | Sequence | PBM E-score
67 | CCCTCCAC | -0.00309
68 | CAGCAGGG | 0.0475
69 | GATATCCA | 0.116
70 | ATCAAAAA | 0.0258
71 | CGTGACTC | 0.472
72 | CGGGCTAC | -0.197
73 | AGCTTTTA | -0.184
74 | CTAACTGA | 0.0377
75 | GATCAATA | -0.0202
76 | CGTCCACG | -0.151
77 | CAAGTAGC | -0.237
78 | ATAATTCG | -0.0653
79 | CGAGATAC | 0.123
80 | GTGGTCAA | 0.0128
81 | GAAATACA | -0.205
82 | AAGAAGAG | -0.151
83 | CTCTGGGA | -0.187
84 | AGTCCACC | 0.213
85 | AGTGGGCA | 0.0205
86 | ACCATGGA | 0.0266
